{
  "source": "the supplement of paper PMC11417369",
  "note": "The list shows a part of the results.",
  "data": [
    {"test_system": "PfAP2-HC AP2 domain (GST-tagged)", "assay": "gcPBM binding intensity (ln(normalized median fluorescence intensity)); higher = stronger DNA binding", "method_in_brief": "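GST-tagged P. falciparum DNA-binding domains, expressed in E. coli (about 25 μg on average), were applied for 1 h to an Agilent 4 × 180k array of primer-extended double-stranded 36-bp intergenic genomic probes plus negative controls. The binding buffer was 1× PBS with 1% milk, 0.2 mg/ml BSA, 0.5% salmon testes DNA and 0.03% Triton X-100. Bound protein was detected with Alexa488 anti-GST antibody and scanned at 488 nm. Binding intensity is the highest Masliner-normalised natural-log median intensity across replicate spots of either probe orientation.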", "values": [
      {"sequence": "ATTTTCACCTGAACGGTGCATATTTAATTTTAGGTT", "gcPBM binding intensity (ln)": 9.83},
      {"sequence": "ATATATGTACAAATTGTGCGCAATAATTTTGTCTTT", "gcPBM binding intensity (ln)": 9.77},
      {"sequence": "ATACATATATATGTGTGTACATATGTGTATACATTT [XGTACX_site6544]", "gcPBM binding intensity (ln)": 9.92},
      {"sequence": "TTTTATAAATCTAAACGTATCTAAATGAATAATTAA [GTGCAC_negctrl_site44]", "gcPBM binding intensity (ln)": 9.28},
      {"sequence": "ATATGTATTAAGTGTACACATATAATGGGTTTGTTA [CACACA_site5682]", "gcPBM binding intensity (ln)": 9.85},
      {"sequence": "GAATGAAAATAAAATTGTACACATATCTATATCTAT [XGTACX_site2642]", "gcPBM binding intensity (ln)": 9.63},
      {"sequence": "AAAAAAAAAAAAAGTTGTACATTATTTTCCTAATTC [XGTACX_site7998]", "gcPBM binding intensity (ln)": 9.37},
      {"sequence": "TATATTATATGTATTGCACACCTTCAACAACTACTT [CACACA_site8121]", "gcPBM binding intensity (ln)": 9.96},
      {"sequence": "TTTAATTAGGATAATTGTACTGAACTAAGTATATTT [XGTACX_site1871]", "gcPBM binding intensity (ln)": 9.23},
      {"sequence": "TATTATTTTATGAATACACACATATACGAAAATATT [CACACA_site964]", "gcPBM binding intensity (ln)": 9.67},
      {"sequence": "AATTATTGTATGCTATACGTTCCCCTCTAATTTATC [CACACA_negctrl_site1052]", "gcPBM binding intensity (ln)": 9.72},
      {"sequence": "ATTGGGTACAAATACACACACATATAAATATTAATA [CACACA_site7173]", "gcPBM binding intensity (ln)": 10.2},
      {"sequence": "TATTTTTATATAATGTGTACTTATACCTTATTTTTT [XGTACX_site1658]", "gcPBM binding intensity (ln)": 9.78},
      {"sequence": "TATATTTTTTTTGTGCGTACATACCATTTTAATAAT [XGTACX_site2751]", "gcPBM binding intensity (ln)": 9.83},
      {"sequence": "CACAAACAAAAACACACACACACACCCACAAAAATG [CACACA_site2429]", "gcPBM binding intensity (ln)": 11},
      {"sequence": "TACATATTTATATACACACACACCGTCCGTGTTAAA [CACACA_site7413]", "gcPBM binding intensity (ln)": 10.2},
      {"sequence": "CTAAAAATCTTTTGTTGTACTTTTAGATAATCAGGA [XGTACX_site3968]", "gcPBM binding intensity (ln)": 9.25},
      {"sequence": "AAGTAAAAAAATAGCACACACACAAAAACACAGACA [CACACA_site4839]", "gcPBM binding intensity (ln)": 10.7},
      {"sequence": "AAAGGGATGTTCATTCTTTTTTTTTTTTTTGTATAT [CACACA_negctrl_site511]", "gcPBM binding intensity (ln)": 9.49},
      {"sequence": "AAAAAAAAAAAACACACACACACACTAATACATACA [CACACA_site8135]", "gcPBM binding intensity (ln)": 10.6},
      {"sequence": "TTTCCCTACCAAAAATGTACTTATAAGCGTTTTTAT [XGTACX_site739]", "gcPBM binding intensity (ln)": 9.66},
      {"sequence": "TTTTTAAATTATTGCACACAAAAATGAAAGGAAAAA [CACACA_site1455]", "gcPBM binding intensity (ln)": 9.7},
      {"sequence": "CACTAAAATAAACACACACACACACCGATATATATA [CACACA_site9379]", "gcPBM binding intensity (ln)": 10.8},
      {"sequence": "CTTGTCATTTTGCACACACACATGTATAGGTTATTA [CACACA_site7431]", "gcPBM binding intensity (ln)": 10.6},
      {"sequence": "TATATTTATATGATAACACACATAAATTATACATTT [CACACA_site1671]", "gcPBM binding intensity (ln)": 9.59},
      {"sequence": "TTAATTTTATTTTTTTGTACACATAAATATTATAAA [XGTACX_site4680]", "gcPBM binding intensity (ln)": 9.63},
      {"sequence": "TTTTTTTAAATATACACACACATTTATACCTATATA [CACACA_site7572]", "gcPBM binding intensity (ln)": 10.1},
      {"sequence": "TATATATATATAGACACACACACACCCATATATATA [CACACA_site4117]", "gcPBM binding intensity (ln)": 10.9},
      {"sequence": "TATAACTATAAAAGTAGTACACATATATATTATATA [XGTACX_site1391]", "gcPBM binding intensity (ln)": 9.69},
      {"sequence": "AATGGTTTAAAATACTGTACATATATATAAAAGTAA [XGTACX_site6187]", "gcPBM binding intensity (ln)": 9.69},
      {"sequence": "TTCCTAATTGACAACACACACAACAAAAAAGGGATT [CACACA_site1279]", "gcPBM binding intensity (ln)": 10.2},
      {"sequence": "TACCTTTTTTGTTTTATGCACACCATATAACCAAGG [CACACA_site30]", "gcPBM binding intensity (ln)": 9.77},
      {"sequence": "TAAAAAAAAAAAAAAGCATGCTATATTATATTACAC [TGCATGCA_site241]", "gcPBM binding intensity (ln)": 9.62},
      {"sequence": "AAGAAATATTTATACACACACACAAACATATAAATA [CACACA_site6981]", "gcPBM binding intensity (ln)": 11.1},
      {"sequence": "TATAACTATTCACAGACATGCACATAATAACAATAA [TGCATGCA_site207]", "gcPBM binding intensity (ln)": 9.7},
      {"sequence": "TTTTTTTTTCCGTGTTGTACAAAAAAAAAGATTTTG [XGTACX_site3925]", "gcPBM binding intensity (ln)": 9.4},
      {"sequence": "AGTCTGAATAAAATTACACACATATACATATATATA [CACACA_site1780]", "gcPBM binding intensity (ln)": 9.78},
      {"sequence": "TAAATATATTAAGCTTGTACATGAAAAAAAAAAAAA [XGTACX_site3264]", "gcPBM binding intensity (ln)": 9.47},
      {"sequence": "AAAAAAAAAAAAAAAACACACAATAAAGTAAAATTT [CACACA_site135]", "gcPBM binding intensity (ln)": 9.66},
      {"sequence": "ATATATAAATTTTAGTGTACATTAATTTTTTTTTTT [XGTACX_site7782]", "gcPBM binding intensity (ln)": 9.64},
      {"sequence": "TATGTATATAAATTAACACACATATGTGGTTAATAG [CACACA_site3143]", "gcPBM binding intensity (ln)": 9.64},
      {"sequence": "TATATTTATTTATATACACACATATTTATAAATATA [CACACA_site7047]", "gcPBM binding intensity (ln)": 9.69},
      {"sequence": "AGATTTAAATATCATACACACTTTATCTATAATACA [CACACA_site6581]", "gcPBM binding intensity (ln)": 9.61},
      {"sequence": "TAGTTGTTTATAACACGTTGACAGAAATGTTATGTA [GTGCAC_negctrl_site624]", "gcPBM binding intensity (ln)": 9.55},
      {"sequence": "CAAAATTGACATGACGCACACAAGTGTAGATATTTT [CACACA_site1250]", "gcPBM binding intensity (ln)": 9.97}
    ]}
  ]
}
